{"source": "paper PMC12136788", "binders": {"B1": {"name": "49672768_49764784_223_CDS_ENSG00000102935_ENST00000562871|human|control|control (ssRNA)", "RNA": "GGGAGUUCUACAGUCCGACGAUCUGGGUCGUCAUCACCAUCUCCAGGACAGCGGUGGGCCCGGUGGUCCGUCAGGUCUGCCAGAGACUCGAAGUCCUGCUGACAGUGAUCGCAGGUGUAAAUUGAUUCAUCCUCCAUGUCUUCCAACAGAGGAUUGAGCAUCA"}, "B2": {"name": "chr3:196089228:196089229:-_ENSG00000163960_ENST00000296328|hu_hu|FALSE|FALSE (ssRNA)", "RNA": "GGGAGUUCUACAGUCCGACGAUCUUCCCUUUUUCCAUCUGGAUACCGCAACAUCAGCUGUGCUUUUGGUCCAUUUACAUCUAUCCCCUCCACUACUCCAUCUGCUUUUUCAGGUGGCAUCUCCAGUAUCUCUGAAUCCACAGCCAACAGAGGAUUGAGCAUCA"}, "B3": {"name": "154391535_154396286_1232_3pUTR_ENSMUSG00000026482_ENSMUST00000027760|mouse|control|control (ssRNA)", "RNA": "GGGAGUUCUACAGUCCGACGAUCGAAAGUUCUUCAAACAUCAGCAUUCUGUCCUUCGGGACAGCAGCCCAAGCCUUUUUCAACCGAUAGAUGGAAUUAGACUGCAGUGCGGAAACGAUGGCCCUCAAGGAGGAAAAAUUCUUCCAACAGAGGAUUGAGCAUCA"}, "B4": {"name": "chr11:9452432:9452433:+_ENSG00000205339_ENST00000379719|hu_hu|motif|central (ssRNA)", "RNA": "GGGAGUUCUACAGUCCGACGAUCAAAUGUCAUUGCCAAAUGUUGUGUCAUUUCUACUGCAAUAGGAGUAACUUCUUCACGGUAUUCACAGAUCAUUUUCUGAAUUACAUUGGUAAGGUCAUCAUUUUCUGUUUCUCUUAUAAUCAACAGAGGAUUGAGCAUCA"}, "B5": {"name": "126725971_126726091_2158_CDS_ENSMUSG00000043872_ENSMUST00000106102|mouse|control|control (ssRNA)", "RNA": "GGGAGUUCUACAGUCCGACGAUCAGACACAUGAACUGUGUUGAACAAAGAGCAGAGAGUGUGUAGUGCCUCGCGGAGCUCCUUCACCUCCUUACAGAAGCUAAUCACCGCUAACUCCAAAAAAUGGGCGUGACAAUGCACAUACAACAGAGGAUUGAGCAUCA"}, "B6": {"name": "chr14:76904430:76904431:+_ENSMUSG00000022010_ENSMUST00000022587|mus_mus|mus_mus_mus_hu_True|8_88 (ssRNA)", "RNA": "GGGAGUUCUACAGUCCGACGAUCUGCAGCCAAAAACACCCUCGUGGCGGGAGGGAGGGAACACCAGCAGCCUUGUAUAAGCUAGAUAAAAUCUUCUGGCUUUCCGCAGCCCAGGGAGAAACAGAAAUGGUGCUGGCUAAUUUACAACAGAGGAUUGAGCAUCA"}, "B7": {"name": "chr9:131457026:131457027:+_ENSG00000119335_ENST00000372688|hu_hu|FALSE|FALSE (ssRNA)", "RNA": "GGGAGUUCUACAGUCCGACGAUCGUAGAGAAAAGAGACCUCAAGAACAGGGCGACUGAGCACAAGAGGGAAAAAAAAAAAAAAAAAAAAAAAAGACUGCAACUUGCUCCCAGGGACUGGAGAAAAUUUAAAAAAAGGAAGGUUCAACAGAGGAUUGAGCAUCA"}, "B8": {"name": "chrX:140365796:140365797:-_ENSMUSG00000031285_ENSMUST00000033642|mus_mus|mus_mus_mus_hu_False|8_38 (ssRNA)", "RNA": "GGGAGUUCUACAGUCCGACGAUCCUUCUCAUUACUCAGUGCCUGCAAGGUUCUGGUUCGGUAGAAGCUACAGUGGGCGCUGUGAGUGGGGCUAGGCAGUCCAUUCAUCCGGGAGCCUCGCAUGUUCCUAGAUGCUUUAUCUCUCAACAGAGGAUUGAGCAUCA"}, "B9": {"name": "49432654_49433006_8424_CDS_ENSG00000167548_ENST00000301067|human|control|control (ssRNA)", "RNA": "GGGAGUUCUACAGUCCGACGAUCGGAGGUUGCUGCUGUUGCCUGUUGUUGCUGCCACAGUUGUUGCUGUUGCUGCUGUAAGGGCAGGGACCCAGGAUAGGGUGCUCGCUGAUAGAAAGCUUGGGAGCCUCCUACCAGUUGCCGCAACAGAGGAUUGAGCAUCA"}, "B10": {"name": "chr7:143079985:143079986:+_ENSG00000159840_ENST00000392910|hu_mus|FALSE|FALSE (ssRNA)", "RNA": "GGGAGUUCUACAGUCCGACGAUCCUGAGGCUUGGCCUGCGGCUGAGGUGGUGGCUGGGAGCUAGAAGGGGUCUUCCAAGGAGGCAAGGGUGCUGUGCCCCCAGGGGCAGGUUUGGUACUAGGCUUGGGAACAAAUGGAGUGGCCAACAGAGGAUUGAGCAUCA"}, "B11": {"name": "chr12:98991669:98991670:+_ENSG00000075415_ENST00000552981|hu_hu|motif|central (ssRNA)", "RNA": "GGGAGUUCUACAGUCCGACGAUCGAAUCCGUUAAAUAUGCCCUUGUACUUUUGGGGGUCCACCUGCAUACGGCAUUUCACGGAAUCCAGGGGAACCACAGCAGUGUGUGUCAGACCACAACUUAAGACCCCACCAAAGCCACACAACAGAGGAUUGAGCAUCA"}, "B12": {"name": "chr12:493273:493274:-_ENSG00000073614_ENST00000399788|hu_mus|hu_hu_hu_mus_False|38_38 (ssRNA)", "RNA": "GGGAGUUCUACAGUCCGACGAUCUUUUCUCUCCACCACAGGGAUCUUCAAUGUAGAUCCUUGAAGUUCCCAAAAUUUUGCCAGUUGAUCCAAGAAGUCCAAUCUCACUCUAGUCAUUGCCUCAAGUUCAUUCAGGCGCUGGACCAACAGAGGAUUGAGCAUCA"}, "B13": {"name": "chr14:53324496:53324497:-_ENSG00000073712_ENST00000341590|hu_mus|FALSE|FALSE (ssRNA)", "RNA": "GGGAGUUCUACAGUCCGACGAUCUAUUGUAACACAAAGGCUGCAUAUCUUAGGCAGAUAGUGAGUAUGCUGGUGAAUACUAAGAGUACUGUAAUACAGUUUGGUGUAAAACUAAACACAAAACAAUGUACAGCAUGCUUACUCCAACAGAGGAUUGAGCAUCA"}, "B14": {"name": "chr7:7679991:7679992:-_ENSG00000106399_ENST00000396682|hu_hu|hu_hu_hu_mus_False|18_88 (ssRNA)", "RNA": "GGGAGUUCUACAGUCCGACGAUCUGGGAUGAAUCUUUUCCAGCUUCCCUACGAAGCACACGGGCCGGUCGAUAUACUGUGGUAACAUGCUGGCGUUGACGCGCGCUUUGGGGAGCUCCAUCAUGUCCUCCAUGAUUCUGCCGCCAACAGAGGAUUGAGCAUCA"}, "B15": {"name": "chr7:130129250:130129251:+_ENSMUSG00000030779_ENSMUST00000052135|mus_mus|motif|central (ssRNA)", "RNA": "GGGAGUUCUACAGUCCGACGAUCCUCCUCUGGUAAGAAGGGUGGUUUCUCUUUCUUCCCGAUUGCAUAGGCCUCUGCAUCGGUAGUUGGUAUUGCAUAUUUUCCAGUGUUUGUAAGCAUUGCACCUUUCAUGUUAGGAUCUUUCAACAGAGGAUUGAGCAUCA"}, "B16": {"name": "chr1:39494447:39494448:+_ENSG00000168653_ENST00000372967|hu_mus|hu_hu_hu_mus_False|18_68 (ssRNA)", "RNA": "GGGAGUUCUACAGUCCGACGAUCGCACCGAGCGGCGUUCUUAUAGGGCUGUUCUGCGCUUAGGAACGUCAACCAUCGGUCCAGGCUGAUGCCCAGCUUUUUCUGUAUGUCAAGGAAAGGCAUGGCCCUGCAGUGCCCUUGUCACAACAGAGGAUUGAGCAUCA"}, "B17": {"name": "chr2:220084271:220084272:-_ENSG00000198925_ENST00000396761|hu_mus|FALSE|FALSE (ssRNA)", "RNA": "GGGAGUUCUACAGUCCGACGAUCGGAAGGGAGUGCAGGAAGGGUAGGAGCUGGAUCCCAGCAUGCAAUGUCGAAGCCCUAGGCUAGGGUGAGUCCAUUAUCCCUCCAUUCUCCUCUUGGUAAGUGAGGGAUACUGGGCAGAGCCAACAGAGGAUUGAGCAUCA"}, "B18": {"name": "chr14:62205016:62205017:+_ENSG00000100644_ENST00000337138|hu_hu|motif|central (ssRNA)", "RNA": "GGGAGUUCUACAGUCCGACGAUCCUGAUCCUGAAUCUGGGGCAUGGUAAAAGAAAGUUCCAGUGACUCUGGAUUUGGUUCGGAUUUUAAUGCAACUUCUUGAUUGAGUGCAGGGUCAGCACUACUUCGAAGUGGCUUUGGCGUCAACAGAGGAUUGAGCAUCA"}, "B19": {"name": "chr11:29607782:29607783:+_ENSMUSG00000020458_ENSMUST00000102843|mus_hu|FALSE|FALSE (ssRNA)", "RNA": "GGGAGUUCUACAGUCCGACGAUCAUUAAUAUUUUCAGGCUCUUUAAUUUCUUCCUUUAUUCCUGAUACUUUUUUUAGUGAUACACUCAUGGCCUCUUCAUAUGGUGGGGGGUUUUCAGGCUCAUGUUUUAUGCUUUCAUAAUUCAACAGAGGAUUGAGCAUCA"}, "B20": {"name": "chr16:94637918:94637919:+_ENSMUSG00000040785_ENSMUST00000117648|mus_mus|motif|central (ssRNA)", "RNA": "GGGAGUUCUACAGUCCGACGAUCAUCCUGGUGUGCAGCUCUGGAAGAUUUUGAAAACUGUUUCUCCAAAAUGCUUUUCAAAUCGGCUUGUAAACUCACUUCUGAAUUAGAACUGGGCUUUUCUGAUUCAUUGUUUCGUGAUUUCAACAGAGGAUUGAGCAUCA"}, "B21": {"name": "chr10:98431539:98431540:+_ENSMUSG00000019943_ENSMUST00000020107|mus_mus|FALSE|FALSE (ssRNA)", "RNA": "GGGAGUUCUACAGUCCGACGAUCCGUAAUUCCAAAGUCUCCAUCAUGGUUAGCUUCUUUCAAAGAGUUCUUCACACCGCUAUACGCAACUGAGUUGUUGGCCAUGUCGCCCAUCACAAGGAUAAUUUAUUAGGAGGAAAAUGUCAACAGAGGAUUGAGCAUCA"}, "B22": {"name": "chr12:48362563:48362564:+_ENSG00000134291_ENST00000256686|hu_hu|hu_hu_hu_mus_False|8_48 (ssRNA)", "RNA": "GGGAGUUCUACAGUCCGACGAUCUCCGUCAAGCCCUUCGAUAGACCCUUGCGGGGGAAACUGUAAUCACUUUGUAUGGGGAAGGAAAAAAAAAGCCAAAAACUUUCCAAAAAGCGGGGGUGGGGUGUCCCAGGCCUGGGAGGUCAACAGAGGAUUGAGCAUCA"}}, "note": "Some of the results follow."}
{"molecular_target": "T1, UNK ZnF1-3 (human, UniProt Q9C0B0 31-174)", "T1 sequence": "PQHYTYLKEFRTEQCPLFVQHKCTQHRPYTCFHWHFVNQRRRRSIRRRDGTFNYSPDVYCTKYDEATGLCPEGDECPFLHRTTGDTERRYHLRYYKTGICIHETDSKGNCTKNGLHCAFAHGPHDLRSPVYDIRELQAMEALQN", "experiment": "nsRBNS (natural sequence RNA bind-n-seq); RBNS binding buffer (assumed for nsRBNS): 25 mM Tris pH 7.5, 150 mM KCl, 3 mM MgCl2, 0.01% Triton X-100, 500 ug/ml BSA, 20 U/ml SUPERase-In, 4 C; UNK is unkempt and MSI1 is Musashi-1; names of the RNAs are library labels; protein concentration not given here; high values mean tight binding", "units": {"binding signal": "enrichment R"}}
{"binder": "B1", "binding signal": 0.719}
{"binder": "B2", "binding signal": 0.957}
{"binder": "B3", "binding signal": 1.48}
{"binder": "B4", "binding signal": 0.762}
{"binder": "B5", "binding signal": 1.03}
{"binder": "B6", "binding signal": 2.04}
{"binder": "B7", "binding signal": 2.58}
{"binder": "B8", "binding signal": 0.437}
{"binder": "B9", "binding signal": 0.747}
{"binder": "B10", "binding signal": 1.94}
{"binder": "B11", "binding signal": 1.01}
{"binder": "B12", "binding signal": 0.97}
{"binder": "B13", "binding signal": 0.553}
{"binder": "B14", "binding signal": 0.85}
{"binder": "B15", "binding signal": 0.344}
{"binder": "B16", "binding signal": 0.717}
{"binder": "B17", "binding signal": 0.867}
{"binder": "B18", "binding signal": 0.878}
{"binder": "B19", "binding signal": 0.553}
{"binder": "B20", "binding signal": 0.616}
{"binder": "B21", "binding signal": 1.36}
{"binder": "B22", "binding signal": 1.81}
